{"source": "PubChem BioAssay AID1347417", "about": "(National Center for Advancing Translational Sciences (NCATS), 2020)", "note": "The whole screen tested about 120,000 compounds, of which about 5,300 (4.4%) were called active. Inconclusive means that the source gave no clear call. Such entries were picked first, then a sample of the others. The call rests on the fitted dose curve; in most records, active means well fitted inhibition curve with a large enough effect; inconclusive means small, poorly fitted or top-dose-only effect; inactive means no such curve, though single readings can be large or run the other way. A potency beside an inconclusive call is a rough fit, not a confirmed value. Potency means the concentration at half of the fitted maximal effect; tags describe the fitted curve by direction and shape."}
{"assay": "qHTS Primary assay for Inhibitors of Plasmodium falciparum Dd2 growth in vitro; further: nearly all actives have a fitted effect of over 65% in size;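 on activity, negative = inhibition: plate controls were DMSO vehicle for no effect and reference drug for full effect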", "conditions": "P. falciparum Dd2 growth, SYBR Green, 72 h; activity, negative = inhibition: at 28.9 µM (top of the series) unless noted; series mostly up to 28.9 µM", "in_short": "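Infected erythrocytes (Dd2, 0.3% parasitemia, 2.5% hematocrit final) are added to compound in RPMI-1640/Albumax II medium, grown 72 h at 37C in low oxygen, then lysed with saponin/Triton-X containing SYBR Green and read by fluorescence.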"}
{"smiles": "COc1ccc(NC(=O)CCC2CCCN(C(=O)c3csc(C(C)=O)c3)C2)cc1Cl", "note": "(centres undefined)", "outcome": "inactive"}
{"smiles": "COc1cc(OC)c(NC(=O)c2cnn(-c3cccc(Cl)c3C)c2C2CCN(C(=O)OC(C)(C)C)CC2)cc1Cl", "Potency": "active: 3.55 µM"}
{"smiles": "COc1ccc(-n2cc(-c3ccccc3)c3c(NCc4cccc(Cl)c4)ncnc32)cc1", "Potency": "inconclusive: 10 µM [inhibitor, single point]"}
{"smiles": "O=C(NCc1cccs1)c1ccc(OC2CCN(Cc3ccccn3)CC2)cc1", "Potency": "inconclusive: 17.8 µM [inhibitor, single point]"}
{"smiles": "COC[C@@]12CC[C@@H](N3CCOCC3)C[C@H]1CCN(c1nccc(NC(C)C)n1)C2", "outcome": "inactive"}
{"smiles": "COc1ccc(-c2nnc3ccc(N4CCN(c5ccccn5)CC4)nn23)nc1", "Potency": "active: 12.6 µM"}
{"smiles": "CCCN1CCN(CC2=C(C(=O)OCC)C(c3ccc(Cl)cc3)NC(=O)N2)CC1", "note": "(centres undefined)", "Potency": "inconclusive: 1.41 µM [inhibitor, single point]"}
{"smiles": "Cc1cc(C)cc(Nc2nc(C)cc(=O)n2CC(=O)NC(C)CCc2ccccc2)c1", "note": "(centres undefined)", "outcome": "inactive"}
{"smiles": "O=S1(=O)NCC2(CCN(Cc3ccc(Cl)s3)CC2)Oc2ncccc21", "Potency": "inconclusive: 7.08 µM [inhibitor, partial curve]"}
{"smiles": "CCOc1cccc(CNC(=O)C2Cn3cccc3C(=O)N2)c1", "note": "(centres undefined)", "Potency": "inconclusive: 17.8 µM [inhibitor, single point]"}
{"smiles": "CCN1CCC(N2CCC(Oc3ccccc3-c3nc(-c4ccncc4)no3)C2)CC1", "note": "(centres undefined)", "Potency": "inconclusive: 1.78 µM [inhibitor, partial curve, poor fit]"}
{"smiles": "CC(C)c1ccc(C2c3c(-c4ccccc4O)n[nH]c3C(=O)N2CCc2ccccc2)cc1", "note": "(centres undefined)", "Potency": "inconclusive: 2.24 µM [inhibitor, single point]"}
{"smiles": "CCN(CC)C(=O)CN1CCC(=O)N(Cc2ccc(F)cc2)C(C(C)C)C1", "note": "(centres undefined)", "activity, negative = inhibition": "inactive: -16.6%"}
{"smiles": "COc1cccc(NC(=O)Cn2c(=O)n(CCCC(=O)NCc3ccc4c(c3)OCO4)c(=O)c3ccccc32)c1", "Potency": "inconclusive: 17.8 µM [inhibitor, single point]"}
{"smiles": "CCn1cc(CN2CCC3(CC2)CC(c2ccccc2)CN3C)cn1", "note": "(centres undefined)", "Potency": "inconclusive: 11.2 µM [inhibitor, partial curve]"}
{"smiles": "CC(C)(O)C#Cc1ccc(CN2CCC(CO)(CCCc3ccccc3)CC2)s1", "Potency": "inconclusive: 10 µM [inhibitor, single point]"}
{"smiles": "O[C@@H]1CC(CNCc2ccc(Cl)cc2)(COc2cccnc2)C[C@@H]1O", "note": "(some centres undefined)", "Potency": "inconclusive: 2.82 µM [inhibitor, single point]"}
{"smiles": "CC1(C)CN(C(=O)c2ncc(F)cc2F)CCC1(O)CN1CCOCC1", "note": "(centres undefined)", "activity, negative = inhibition": "inactive: 11.4%"}
{"smiles": "Cc1cccc(C)c1NC(=O)CN1C(=O)NC2(CCC(C)CC2)C1=O", "note": "(centres undefined)", "activity, negative = inhibition": "inactive: 7.56%"}
{"smiles": "Cc1ccc(Cn2c(-c3ccc(F)cc3)nc(C)c(CCO)c2=O)cc1", "Potency": "inconclusive: 15.8 µM [inhibitor, single point]"}
{"smiles": "COC(=O)c1c(NC(=O)c2ccc(S(=O)(=O)N3CCCCC3C)cc2)sc2c1CCN(C(C)C)C2", "note": "(centres undefined)", "Potency": "active: 11.2 µM"}
{"smiles": "CCOC(=O)N1CCc2c(sc(NCc3ccc(OC)c(Br)c3)c2C(=O)Nc2cc(OC)ccc2OC)C1", "Potency": "inconclusive: 17.8 µM [inhibitor, single point]"}
{"smiles": "CCOC(=O)c1ccccc1NC(=O)N(Cc1ccc(C)cc1)Cc1cccn1-c1nnc(N2CCCC2=O)s1", "activity, negative = inhibition": "inactive: -18.6%"}
{"smiles": "COC1CCOC2(CCN(C(=O)c3c[nH]c4ccccc34)CC2)C1", "note": "(centres undefined)", "Potency": "inconclusive: 10 µM [inhibitor, single point]"}
{"smiles": "O=S(=O)(c1ccccc1)c1nc(-c2cccc(Cl)c2)oc1NCc1ccccc1", "Potency": "inconclusive: 17.8 µM [inhibitor, single point]"}
{"smiles": "Cc1ccc([S+](=O)([O-])N2CCC(c3nn(Cc4ccccc4)c(=O)[nH]3)CC2)cc1", "outcome": "inactive"}
{"smiles": "COc1ccc(Br)c2c1-c1nc(NC(=O)c3ccccc3SC)sc1C2", "activity, negative = inhibition": "inactive: -5.37%"}
{"smiles": "COCCNC(=O)CSc1nnc(-c2ccc(OC)c(OC)c2)c(-c2ccc(OC)c(OC)c2)n1", "Potency": "inconclusive: 10 µM [inhibitor, single point]"}
{"smiles": "CO[C@H]1C(=O)N(C(C)C)[C@H]1C1CCN(C(=O)CCc2ccccc2)CC1", "activity, negative = inhibition": "inactive: -21.4%"}
{"smiles": "O=C1c2c(nc(CNCc3cccnc3)n2Cc2ccccc2)NCCN1Cc1cccc(Cl)c1", "Potency": "inconclusive: 12.6 µM [inhibitor, single point]"}
{"smiles": "COc1cccc(C(=O)Nc2ccc3c(c2)CN(Cc2cccc(OC)c2OC)C(=O)CO3)c1", "Potency": "inconclusive: 1.78 µM [inhibitor, partial curve, poor fit]"}
{"smiles": "Cc1cccc(C2NC(=O)c3c(sc4c3CCN(C)C4)N2)c1O", "note": "(centres undefined)", "Potency": "inconclusive: 1.41 µM [inhibitor, single point]"}
{"smiles": "CCOC(=O)c1ccc(NC2=CC(c3ccc(Br)cc3)N(c3ccc(C(=O)OCC)cc3)C2=O)cc1", "note": "(centres undefined)", "Potency": "inconclusive: 2.82 µM [inhibitor, partial curve]"}
{"smiles": "CCOC(=O)c1ccc(NC(=O)C(=O)NCc2ccco2)cc1", "Potency": "inconclusive: 3.55 µM [inhibitor, single point]"}
{"smiles": "COCCNC(=O)C1COC2(CCN(C(=O)c3cccs3)CC2)N1C(=O)c1ccccc1", "note": "(centres undefined)", "activity, negative = inhibition": "inactive: 20.6%"}
{"smiles": "Cc1cccc(Oc2nc3c(C)cccn3c(=O)c2/C=C(\\C#N)c2nc3ccccc3s2)c1", "Potency": "inconclusive: 11.2 µM [inhibitor, single point]"}
{"smiles": "COC(=O)c1ccc2nc(C)cc(Nc3ccc(O)cc3)c2c1", "Potency": "inconclusive: 1 µM [inhibitor, full curve, poor fit]"}
{"smiles": "COc1cccc(CCC(=O)N2CCC(Oc3ncccc3C(=O)N3CCCCC3)C2)c1", "note": "(centres undefined)", "Potency": "inconclusive: 11.2 µM [inhibitor, single point]"}
{"smiles": "CCOC(=O)c1cc(-c2ccc(F)cc2)n(CCC(=O)Nc2ccccc2OC)c1C", "Potency": "inconclusive: 3.98 µM [inhibitor, single point]"}
{"smiles": "CC(Sc1ncc(S(=O)(=O)c2ccc(C(C)C)cc2)c(N)n1)C(=O)Nc1ccccc1", "note": "(centres undefined)", "Potency": "inconclusive: 10 µM [inhibitor, single point]"}
{"smiles": "COc1ccc(NC(=O)Cn2c(=O)n(-c3ccc(Cl)cc3)c(=O)c3c(C)c(C(=O)N(C)C)sc32)cc1Cl", "Potency": "inconclusive: 17.8 µM [inhibitor, single point]"}
{"smiles": "CCN(CC)Cc1cnc2c(C(=O)N(C)Cc3ccccc3C)cnn2c1", "activity, negative = inhibition": "inactive: -3.32%"}
{"smiles": "CC(C)c1noc([C@@H]2C[C@H](NC(=O)c3ccc(F)cc3)CN2C)n1", "Potency": "inconclusive: 31.6 µM [inhibitor, single point]"}
{"smiles": "Cc1ccc2c(c1)c(=O)c1ccccc1n2CCCC(=O)Nc1ccc(F)cc1F", "Potency": "inconclusive: 10 µM [inhibitor, single point]"}
{"smiles": "O=C(N[C@@H]1COCC[C@@H]1OCC1CC1)c1conc1-c1ccccc1", "activity, negative = inhibition": "inactive: -29.5%"}
{"smiles": "Cc1nn2c(c1-c1ccccc1Oc1ccccc1)N(C(=O)C(C)C)CCC2", "Potency": "active: 10 µM"}
{"smiles": "COc1ccc(Cn2c(C3CCN(C(=O)c4cccc(Cl)c4)CC3)n[nH]c2=O)cc1", "Potency": "inconclusive: 17.8 µM [inhibitor, single point]"}
{"smiles": "COc1ccc(CCc2nc3nccc(-c4ccsc4)n3n2)cc1OC", "Potency": "inconclusive: 10 µM [inhibitor, single point]"}
{"smiles": "O=C(CN1CC2CC(C1)[C@H]1CCCC(=O)N1C2)NCCCc1ccccc1", "note": "(some centres undefined)", "activity, negative = inhibition": "inactive: -18.2%"}
{"smiles": "COc1ccc(-c2noc(-c3cccn3CC(=O)Nc3ccc(F)c(F)c3)n2)cc1F", "Potency": "active: 2.82 µM"}
{"smiles": "CN1CCN(C(=O)Cc2c[nH]c3ncc(-c4ccc5c(c4)OCO5)cc23)CC1", "activity, negative = inhibition": "inactive: -20.8% [at 44.1 µM]"}
{"smiles": "COc1cccc(CN2Cc3cc(NC(=O)c4ccc(F)cc4F)ccc3OC(C)C2=O)c1", "note": "(centres undefined)", "Potency": "inconclusive: 10 µM [inhibitor, partial curve, poor fit]"}
{"smiles": "CCC(C)(C)C(=O)N1CCC2(CC1)CC(N(Cc1ccc(F)cc1)C1CC1)CCO2", "note": "(centres undefined)", "Potency": "inconclusive: 0.708 µM [inhibitor, full curve, poor fit]"}
{"smiles": "COc1ccc(Cn2nnc3c(=O)[nH]c(C4CCCN(C(=O)c5ccccc5Cl)C4)nc32)cc1OC", "note": "(centres undefined)", "Potency": "inconclusive: 17.8 µM [inhibitor, single point]"}
{"smiles": "CCCC(=O)N1Cc2ccccc2CC2(CCCCN2Cc2ccccn2)C1", "note": "(centres undefined)", "Potency": "inconclusive: 8.91 µM [inhibitor, single point]"}
{"smiles": "Cc1ccc(C)c(NC(=O)C(=O)NCC(c2cccnc2)N2CCN(c3ccc(F)cc3)CC2)c1", "note": "(centres undefined)", "Potency": "inconclusive: 11.2 µM [inhibitor, single point]"}
{"smiles": "O=C(c1ccoc1)N1CCC(n2cc(-c3nc(-c4ccccc4)no3)nn2)C1", "note": "(centres undefined)", "Potency": "inconclusive: 2.51 µM [inhibitor, partial curve, poor fit]"}
{"smiles": "N#Cc1cc2c(=O)n3ccccc3nc2n(-c2nnc(SCc3ccc(F)cc3)s2)c1=O", "Potency": "inconclusive: 10 µM [inhibitor, single point]"}
{"smiles": "COc1ccc(CNC(=O)c2oc3c(c2C)-c2nn(Cc4ccccc4Cl)cc2CC3)cc1", "Potency": "inconclusive: 17.8 µM [inhibitor, single point]"}
{"smiles": "COC[C@@H]1CN(Cc2cccc(C#N)c2)C[C@H]1C(=O)N(C)C", "Potency": "inconclusive: 5.62 µM [inhibitor, partial curve]"}
{"smiles": "O=C(Cc1ccccn1)N1CCC2(CC1)CCN(Cc1cccs1)c1ccccc1O2", "Potency": "inconclusive: 0.891 µM [inhibitor, full curve]"}
{"smiles": "O=C(NCc1nnc2ccc(-c3ccccc3)nn12)c1cc2ccccc2[nH]1", "outcome": "inactive"}
{"smiles": "O=C(O)C1CCc2nnc(C3CCN(C(=O)C4CCCCC4)CC3)n21", "note": "(centres undefined)", "activity, negative = inhibition": "inactive: 14.4%"}
{"smiles": "CCN(CC)CCOC(=O)c1ccc(NC(=O)c2nn(-c3ccc(C)cc3)c(=O)c3c2c2ccccc2n3C)cc1", "Potency": "inconclusive: 3.98 µM [inhibitor, single point]"}
